Assay results as given in the RNAGym collection of RNA variant scans (doi:10.1093/nar/gkz1192).
Read counts are not given, so values of variants with three or more changes are uncertain.

B1: CPEB3 Ribozyme (parent)
chain: UAACAGGGGGCCACAGCAGAAGCGUUCACGUCGCAGCCCCUGUCAGAUUCUGGUGAAUCUGCGAAUUCUGCUGUAUAUCUC

Variants of: B1
Experiment: self-cleavage, relative activity (ratio to wild type); higher = more cleavage; in vitro, sequencing
Procedure, shortened: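 CPEB3 self-cleaving ribozyme mutant libraries were made by rounds of error-prone PCR, barcoded, and transcribed in vitro with T7 RNA polymerase for 5 hours at 37°C. Cleavage occurred during transcription and a 15 min DNase I step before EDTA stop. RNAs were reverse transcribed with template switching and Illumina-sequenced, with DNA sequencing mapping barcodes to variants. Relative activity is the variant's cleaved/total read fraction divided by wild type's (minimum 5 reads), averaged across three batches.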

Variant	self-cleavage
C23U U31A U49C	0.12
C23U U31C A35C	0.14
C23U U31G U54C	0.12
C23U U41A A45G G73C	0.06
C23U U41A C44U A64G A65G	0.11
C23U U43A G53A U72A	0.3
C23U U43C C62U	0.2
C23U U43C U60C	0.12
C23U U48C U51C C71G C81G	0.13
C23U U49A U66C U69A	0.07
C23U U49C U51A A56G U60C	0.08
C23U U51A A57G U66A	0.04
C23U U51A U67C	0.12
C23U U51C U54C	0.51
C23U U54A U67C A77U	0.09
C23U U58C U69C A75G	0.09
C23U U69A C71U	0.03
C23U U72A U74C	0.2
C23U U74C A75G	0.37
G24A A28C A65C	0.16
G24A A28G A45G G53A	0.17
G24A A28G A77U	0.02
G24A A28G U41C	0.13
G24A A28G U66C U80C	0.11

Variant	self-cleavage
G24A A28U C40U U51A A57G U72A	0.07
G24A A28U U41C A56U U58C	0.14
G24A A28U U51A A57G U72A	0.07
G24A A28U U60A	0.07
G24A A35C C39U G70A	0.16
G24A A35G U41C U54A U60A	0.19
G24A A35G U43C	0.25
G24A A35G U54A A56C U58C	0.09
G24A A35G U67C U74A	0.07
G24A A35U A75G	0.14
G24A A45G A64G U76A	0.05
G24A A47U U49C	0.35
G24A A47U U60A U66A	0
G24A A56G A64G A65G U80C	0.11
G24A A57G A65G U76A	0.14
G24A A57G U69A	0.23
G24A C29U A35G C40A U67C	0.07
G24A C32A A56G U74C	0.15
G24A C32U U69A	0.29
G24A C38U U51C U67C	0.07
G24A C40U U41C A56G U67C U69A	0.15
G24A C44A G61U A65U	0.07
G24A C62U U78C	0.11
G24A G33A C37G A56G U80C C81G	0.06

Variant	self-cleavage
G24A G33U U48A	0.12
G24A G52U U54G A65G	0.32
G24A G53A A64G	0.14
G24A G55A U80C	0.32
G24A G73U U74C U76C	0.08
G24A U25A C39G U74G	0.2
G24A U25C A56U	0.22
G24A U25C C34G U49C U67C	0.05
G24A U25C C40A A57G U66C U78C	0.09
G24A U25C G33A U49C U60A A65G U66C	0.07
G24A U25C U26C C39G U49C A64U	0.06
G24A U25C U60A	0.27
G24A U25C U60A A75U	0.08
G24A U25C U69A U78C	0.18
G24A U25G A45G	0.28
G24A U25G U78C	0.21
G24A U26A A64G	0.27
G24A U26A U41C	0.17
G24A U26A U67C U78C	0.08
G24A U26C A35G A45G	0.21
G24A U26C A45G A77G	0.22
G24A U26C A57U	0.08
G24A U26C U51A U67C U78A	0.06
G24A U26C U54C A77G	0.13

Variant	self-cleavage
G24A U31C A56G	0.17
G24A U31C U43A U74A A75G	0.08
G24A U31C U51C G61A U69A U78C	0.11
G24A U31C U60A	0.12
G24A U31G A35U C40G A47G A57G A64U	0.05
G24A U41A G42A U69C	0.17
G24A U41A G42C U60A U74C	0.14
G24A U41A U48C U54C G70A C71A	0.04
G24A U41A U72A	0.37
G24A U41A U74C	0.2
G24A U41C A45C U48C U51A U60A C62U	0.06
G24A U41C A45U A47G U49A A56G A77C	0.04
G24A U41C G42C U54A	0.67
G24A U41C U43A A45U	0.09
G24A U41C U43C A57G	0.12
G24A U41C U51G U54A A56U A57G A64G	0.09
G24A U43G A45U	0.14
G24A U48A G70U	0.05
G24A U48C C59G U67C	0.13
G24A U48C G63U A64G U74C	0.07
G24A U48C U49G A64G	0.07
G24A U49C C62U U72C	0.13
G24A U49C U51A U72A	0.11
G24A U51A G61A	0.13

Variant	self-cleavage
G24A U51C A56G U72C U74C	0.17
G24A U51C A77G	0.11
G24A U51G U74C	0.22
G24A U54A A64G	0.21
G24A U54A A64G A65G	0.07
G24A U60C U67C	0.19
G24C A28G G42A	0.22
G24C A28U A45G U58G U66C	0.18
G24C A35C C50A	0.08
G24C A35G U48C U58C	0.16
G24C A35U U51C A56G U72C	0.08
G24C A45C G52C A57G A77U	0.09
G24C A45C U48C G52C	0.35
G24C A65G U69C U74A	0.15
G24C A65G U72C	0.11
G24C C29U U48A U78C	0.24
G24C C34G U60A A77G U78C	0.22
G24C C38U A56G	0.07
G24C G42A A57G U66C	0.08
G24C G53A U78C	0.16
G24C U25A G36A G63U A64G	0.1
G24C U25C U31A U51C	0.11
G24C U26A A35G A56G U72C C81U	0.27
G24C U26A A57G	0.25

Variant	self-cleavage
G24C U26A A57G G70C	0.1
G24C U26C A35G U49C U51C	0.03
G24C U26G U43C U48C A57G G63U	0.11
G24C U31C A64U	0.07
G24C U41A U49A	0.08
G24C U41A U51A	0.24
G24C U41A U54C U67C	0.11
G24C U41C A56G U60C G73A C79A	0.28
G24C U48C U60C	0.17
G24C U51C G61C C62A A64G A75G	0.1
G24C U58C U78C	0.18
G24C U69C G70A U72C	0.08
G24U A35G U54C U72C	0.45
G24U A35U A65G U67A	0.1
G24U A45U U48C	0.14
G24U A64G C68G	0.08
G24U C38U U51A	0.4
G24U C40U A65G U69A U72G	0.1
G24U G33U C62A	0.29
G24U G53A U54C U60G A64G A65U	0.07
G24U U26C U41C U67G A75G A77G	0.05
G24U U31A U54C U69C	0.07
G24U U31C U43C U78A	0.14
G24U U31C U78C	0.07

Variant	self-cleavage
G24U U41C U69C	0.13
G24U U41C U74C	0.19
G24U U49C A65U	0.07
G24U U51G A56G A64G	0.08
G24U U58G A64U	0.13
G24U U60G A64U A77G	0.06
U25A A28C U80C	0.65
U25A A28G A35G U60A U69A U78C	0.04
U25A A28G A45C U48C	0.15
U25A A28G A45U A47U	0.15
U25A A28G U41A	0.28
U25A A28G U72A	0.08
U25A A28U G33A G36U	0.13
U25A A28U U31C A35U A56G U78C	0.04
U25A A28U U41A U48A	0.13
U25A A35C U41C U60A U72C	0.12
U25A A35G A45U	0.21
U25A A35G A56G U60A A65G U78C	0.04
U25A A35G A64C U72C	0.11
U25A A35G A65G U69A U80C	0.1
U25A A35G G42A U51A	0.21
U25A A35G U48C	0.39
U25A A35G U60A	0.07
